# Results taken from the supplement of paper PMC7826260.
# This is one part of the list. Each Rep nickase domain was tested in vitro on the same pool of single strands (3 µM enzyme, 1 h, 37 °C); shown is the middle of each 90-letter strand. Values are log2 of uncut reads against the no-enzyme pool; uncut sequences lie near 0, cut ones below; no hit call is given. Counts are relative to all reads, so uncut sequences can rise above 0 when many others are cut.
# Tests used:
# Experiment in all cases: uncleaved DNA left, log2 of reads against the no-enzyme library (log2 ratio); higher = less cleavage (more negative = more Rep cleavage of the k-mer); sequences stand for … in CTCGTCCG…ACCGGAGA
# [1] = tested on: T1, Rep nickase domain of Muscovy duck circovirus
# T1 sequence (protein, residues 1-111, tag omitted): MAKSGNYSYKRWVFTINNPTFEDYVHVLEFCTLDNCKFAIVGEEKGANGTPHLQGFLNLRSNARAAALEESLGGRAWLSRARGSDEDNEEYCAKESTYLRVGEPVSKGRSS
# Protocol: (§1)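 A pool of 90-nt single-stranded DNAs with seven random bases just before the constant AC of the nick site (name = the seven bases) was cut by 3 µM recombinant His6-SUMO-tagged Rep nickase domain (300 nM DNA, 50 mM HEPES pH 8.0, 50 mM NaCl, 1 mM MnCl2, 1 h, 37 °C, three replicates). Uncut DNA was amplified and sequenced.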
# [2] = tested on: T2, Rep nickase domain of banana bunchy top virus
# T2 sequence (protein, residues 1-94, tag omitted): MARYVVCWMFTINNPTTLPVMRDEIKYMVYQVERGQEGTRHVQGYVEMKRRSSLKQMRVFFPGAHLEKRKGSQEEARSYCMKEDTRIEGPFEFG
# Protocol: as §1
# [3] = tested on: T3, Rep nickase domain of cabbage leaf curl virus
# T3 sequence (protein, residues 1-116, tag omitted): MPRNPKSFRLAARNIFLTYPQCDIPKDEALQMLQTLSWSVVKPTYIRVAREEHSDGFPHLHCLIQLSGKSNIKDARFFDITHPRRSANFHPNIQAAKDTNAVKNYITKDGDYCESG
# Protocol: as §1
# [4] = tested on: T4, Rep nickase domain of chickpea chlorotic dwarf virus
# T4 sequence (protein, residues 1-124, tag omitted): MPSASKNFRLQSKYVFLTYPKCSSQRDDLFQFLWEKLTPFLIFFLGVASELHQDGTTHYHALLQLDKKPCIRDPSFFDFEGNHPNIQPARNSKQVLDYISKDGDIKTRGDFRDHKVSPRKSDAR
# Protocol: as §1
# [5] = tested on: T5, Rep nickase domain of faba bean necrotic yellows virus
# T5 sequence (protein, residues 1-98, tag omitted): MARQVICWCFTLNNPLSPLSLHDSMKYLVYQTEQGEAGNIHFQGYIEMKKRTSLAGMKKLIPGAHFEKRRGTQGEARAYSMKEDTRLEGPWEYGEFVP
# Protocol: as §1
# [6] = tested on: T6, Rep nickase domain of maize striate mosaic virus
# T6 sequence (protein, residues 1-117, tag omitted): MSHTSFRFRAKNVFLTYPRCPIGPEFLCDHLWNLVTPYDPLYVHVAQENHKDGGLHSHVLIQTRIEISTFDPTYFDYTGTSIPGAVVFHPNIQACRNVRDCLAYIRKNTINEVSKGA
# Protocol: as §1
# [7] = tested on: T7, Rep nickase domain of porcine circovirus 2
# T7 sequence (protein, residues 2-116, tag omitted): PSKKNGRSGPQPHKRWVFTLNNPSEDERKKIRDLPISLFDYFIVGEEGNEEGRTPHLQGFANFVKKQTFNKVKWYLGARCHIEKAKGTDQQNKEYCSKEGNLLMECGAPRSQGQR
# Protocol: as §1
# [8] = tested on: T8, Rep nickase domain of tomato yellow leaf curl virus
# T8 sequence (protein, residues 1-136, tag omitted): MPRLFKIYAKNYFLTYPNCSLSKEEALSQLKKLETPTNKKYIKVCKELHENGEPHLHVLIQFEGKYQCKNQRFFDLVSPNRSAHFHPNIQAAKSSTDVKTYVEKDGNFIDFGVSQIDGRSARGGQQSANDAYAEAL
# Protocol: as §1
# [9] = tested on: T9, Rep nickase domain of wheat dwarf virus
# T9 sequence (protein, residues 1-137, tag omitted): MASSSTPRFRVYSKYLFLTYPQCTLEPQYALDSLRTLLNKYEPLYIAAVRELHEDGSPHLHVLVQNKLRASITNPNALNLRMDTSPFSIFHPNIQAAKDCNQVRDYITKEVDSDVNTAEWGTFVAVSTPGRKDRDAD
# Protocol: as §1
Sequence,uncleaved DNA left (log2) [1],uncleaved DNA left (log2) [2],uncleaved DNA left (log2) [3],uncleaved DNA left (log2) [4],uncleaved DNA left (log2) [5],uncleaved DNA left (log2) [6],uncleaved DNA left (log2) [7],uncleaved DNA left (log2) [8],uncleaved DNA left (log2) [9]
CGTTGAA,0.0354,0.0817,-0.117,-0.342,0.111,-0.83,0.0176,0.0245,-0.0075
ATTCATG,0.0372,0.00255,-0.678,-0.707,0.0102,-1.12,0.0622,0.0291,-0.131
CTAGGAG,0.0885,0.0796,-0.245,0.41,0.0229,-0.699,0.202,0.0446,-0.0781
AGATCAC,-0.0161,0.0852,0.239,0.243,0.00998,0.177,0.157,0.158,0.119
GGGATGC,0.0679,0.127,0.741,1.93,0.00121,2.16,0.178,0.0347,0.0511
CGAGCTC,-0.000379,0.0454,0.0791,0.384,-0.0412,0.278,-0.0261,-0.0374,-0.0318
GATAACG,0.154,0.0352,-0.753,-0.488,0.151,-0.919,0.212,0.0457,-0.095
TTGATGG,-0.0395,-0.0157,0.189,0.595,0.0296,0.277,0.113,-0.0766,-0.045
ATACAAA,-0.0345,-0.00276,-0.0511,-0.371,0.122,-0.67,-0.0487,-0.0025,0.049
GGGGCAA,0.0399,0.105,0.905,2.11,0.0398,2.31,0.309,-0.0683,0.152
TGGGTAT,0.0771,0.0497,0.583,1.72,-0.027,2.05,0.241,0.0239,0.0471
CTACCTT,0.00513,-0.0588,-0.369,-2.35,0.075,-0.283,-0.874,-0.0672,-0.115
TTATCCA,-0.0252,0.15,0.347,-0.298,0.112,0.431,0.0105,0.173,0.222
ATGTGTC,0.0321,-0.106,-0.14,-0.418,-0.0487,-0.798,-0.0862,-0.123,-0.0761
ATATCCC,-0.118,-0.0659,-0.0638,-0.102,-0.187,-0.361,-0.0956,-0.137,-0.0584
CAAGACC,-0.0682,-0.0544,-0.0557,0.00329,-0.0233,-0.493,-0.0164,-0.123,-0.129
CTAGAGC,-0.0785,0.0699,-0.314,-0.165,-0.00651,-0.888,0.107,0.125,-0.0668
ACACGTG,0.0589,-0.00607,-0.596,-0.0401,0.137,-0.731,0.159,0.0611,0.0779
GGATGTA,0.0963,0.0638,0.62,1.27,0.0229,1.93,0.255,0.162,0.162
GTGGGCA,0.0417,0.0409,0.867,1.86,0.154,2.31,0.241,0.0744,0.176
CACTTCT,-3.22,-3.53,-1.06,-3.23,-0.229,-1.28,-3.86,0.0261,-0.235
TCACGCG,-0.126,-0.0914,-0.756,0.654,-0.0778,-0.72,-0.0211,-0.0728,-0.106
AACACGC,-0.00835,-0.0601,-0.449,-0.668,0.0209,-1.06,0.0135,-0.13,-0.0724
ACTAAGC,-0.0427,-0.0336,-0.178,-0.306,0.0379,-1.09,0.113,-0.0148,-0.126
GACTTGC,-0.122,-0.0284,-0.602,-0.45,-0.123,-0.902,-0.061,-0.0987,-0.213
GGGTGTG,0.034,-0.0781,0.379,0.776,0.0145,0.731,0.134,0.0416,-0.0761
GGGCAAA,0.121,0.132,0.94,2.04,0.0655,2.27,0.24,-0.0187,0.237
CGGGCCG,-0.0282,0.0387,-0.563,-0.163,0.036,-0.288,0.0955,0.0223,-0.0519
CTGAACG,0.149,0.0666,-0.0569,0.318,0.121,-0.455,0.241,-0.0802,0.142
ATATTGA,-0.0273,-0.0109,-0.422,-0.605,-0.0429,-1.22,0.112,-0.0337,-0.116
